From the supplement of paper PMC11417369 come the findings set out here.

The other results are listed elsewhere or left out.

The test system of this experiment is PfSIP2 AP2 domain 1 (GST-tagged). As to the kind of experiment: gcPBM binding intensity (ln(normalized median fluorescence intensity)); higher = stronger DNA binding. A digest of the protocol: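 Binding intensity is the highest Masliner-normalised natural-log median intensity over replicate spots in either probe orientation. To obtain it, GST-tagged P. falciparum DNA-binding domains made in E. coli were incubated for 1 h on an Agilent 4 × 180k array of primer-extended double-stranded 36-bp intergenic genomic probes plus negative controls. Detection used Alexa488 anti-GST antibody with scanning at 488 nm.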
In the case of “TGTTGGTATGTGAATGCATGCATATAAGTCTATCTG [TGCATGCA_site780]”, the “gcPBM binding intensity (ln)” value is 7. To “TTGAAGTATAATAAAGTGCAAAATTATAATGATCTT [GTGCAC_site9639]” belongs 7.94; to “TGGATATATGTAAAAATTGCAAGAAAGATAAAAGGA [CACACA_negctrl_site64]”, 7.68; to “ATTATGATATATATATGTACATATATATAATATAAT [XGTACX_site259]”, 7.05. In the case of “TCTATGAATTAATATGCATGTAACGTATTTATACTT [TGCATGCA_site669]”, the “gcPBM binding intensity (ln)” value was 6.9. With “AAAAAAAAAAAAAGTGCACACTTTTAATATAAATAT [CACACA_site3314]”, the “gcPBM binding intensity (ln)” value amounted to 10.8. In the case of “TTTTTTTTTTTCCTTACACACATATTTCATTTTATA [CACACA_site747]”, the “gcPBM binding intensity (ln)” value stood at 6.94.

For the sequence “TTTTTATTTTTTAGTAGTACACACTTTTTGAACCTT [XGTACX_site1091]”, the “gcPBM binding intensity (ln)” value was 7.04.

As for “TTTTATATATATTATACACACAAGGAAAAAAAAAAA [CACACA_site3677]”, the “gcPBM binding intensity (ln)” value was 6.95.

Consider “TATAAAAGGAAACACACACACATATATATATATATA [CACACA_site939]”, for which the “gcPBM binding intensity (ln)” value came to 9.34. Turning to “TTATAATATAAAAAATGTACATTAAAAAAAAAGATT [XGTACX_site8950]”, the “gcPBM binding intensity (ln)” value stood at 7. Take “AAGTATCAAAAATAAAGTACATATTTTGTAGGCAGG [XGTACX_site1463]”: the “gcPBM binding intensity (ln)” value came out at 7.14. For “CAAAAAATATATTTTTGTACTTATGTTTTTATTTTG [XGTACX_site5230]”, the “gcPBM binding intensity (ln)” value worked out at 6.96. As for “TAGTATAATATGAACACACACACACCCACAAAAAAA [CACACA_site2009]”, the figure is 7.18; as for “CTTGGTAGTTTTTTCTTATAATCTAATTATTAATAA [CACACA_negctrl_site153]”, 7.27.

“ATATATTAATATGTGTGTACTTAACCATTCATATGT [XGTACX_site7395]”: the “gcPBM binding intensity (ln)” value was 7.13. To “TTAATATATAATAAATTTTTTTTTTTTTTTTTTTTT [CACACA_negctrl_site892]” belongs 8.04.

For “TTAATATGAAAACTCTGTACCCAACCTTCTTATGGA [XGTACX_site2126]”, the “gcPBM binding intensity (ln)” value was found to be 6.83. Consider “TATATAAATATATAATGTACGTTTTAAAAATAATAT [XGTACX_site3881]”, for which the “gcPBM binding intensity (ln)” value was found to be 7.35. To “ATATAATAAATGTAGGTGCATAAAAATATTTTGTTA [GTGCAC_site9780]” belongs 10; to “TTAACCACTAAAAGTACACACATATATACCTATATA [CACACA_site6026]”, 7.05; to “TTTTAATAATATGGATGTACATAAAAATAAATAAAT [XGTACX_site7937]”, 7.47.

Consider “TAGTATTATTTTTTTTGTACATATAAATGTAAAATA [XGTACX_site5282]”, for which the “gcPBM binding intensity (ln)” value stood at 7. For “AAAACATAAATACATACACACATAATATATATTAAG [CACACA_site4239]”, the “gcPBM binding intensity (ln)” value was 7.05.
